The campaign covered roughly 350,000 compounds. About 9,900 (2.8%) were called active. The inconclusive results got no clear call from the source; some entries with a clear call stand among them for comparison. The call rests on the fitted dose curve; in most records, active means well fitted activation curve with a large enough effect; inconclusive means small, poorly fitted or top-dose-only effect; inactive means no such curve, though single readings can be large or run the other way. Potencies of inconclusive entries are left out as doubtful fits.
test: A quantitative high throughput screen for small molecules that induce DNA re-replication in MCF 10a normal breast cells.; further: nearly all actives have a fitted effect of over 50% in size; conditions: MCF 10A DNA re-replication, Hoechst nuclear intensity, 48 h; series mostly up to 46.1 µM
Potency means the concentration at half of the fitted maximal effect; tags describe the fitted curve by direction and shape.

Row | SMILES | Potency
1 | COc1cc(/C=C2\SC(=S)N(C(C(=O)O)c3ccccc3)C2=O)ccc1O (stereo unspecified) | inactive
2 | Brc1ccc(-c2nnc3n2C2(CCCC2)Cc2ccccc2-3)o1 | inconclusive [activator, partial curve, poor fit]
3 | O=C1ON=C(c2ccccc2)/C1=C/c1ccc(-c2ccccc2[N+](=O)[O-])o1 | inconclusive [activator, single point]
4 | CCn1c(Cn2nnc(-c3ccccc3)n2)nnc1SCC(=O)Nc1cccc(C(C)=O)c1 | active: 20.6 µM
5 | CC(=O)c1cccc(S(=O)(=O)N2CCCC(c3nc4c(nnn4Cc4ccccc4Cl)c(=O)[nH]3)C2)c1 (stereo unspecified) | inconclusive [activator, partial curve, poor fit]
6 | Cc1cc(N2CCCCC2)n2nc(C)c(-c3ccccc3)c2n1 | inconclusive [activator, single point]
7 | Cc1cc(C)c(S(=O)(=O)NCC23C=CC(O2)C2C(=O)N(c4ccccc4)C(=O)C23)c(C)c1 (stereo unspecified) | inconclusive [activator, single point]
8 | COc1ccc(OCc2nc3ccc(S(=O)(=O)Nc4ccccc4Cl)cc3[nH]2)cc1 | inconclusive [activator, partial curve, poor fit]
9 | COc1ccc(C(=O)Oc2cc(/C=N/NC(N)=S)ccc2OC)cc1 | inactive
10 | CCOc1ccc(CNC(=O)CCn2c(=O)oc3ccccc32)cc1OC | inconclusive [activator, partial curve, poor fit]
11 | CCCn1c(SCC(=O)C(C)(C)C)nc2ccccc21 | inconclusive [activator, partial curve, poor fit]
12 | CC(NC(=O)c1ccc(CS(C)(=O)=O)cc1)c1cccc2ccccc12 (stereo unspecified) | inactive
13 | COc1cccc(CN2C(=O)[C@H]3Cc4c([nH]c5ccccc45)C(C)(C)N3C2=O)c1 | inconclusive [activator, partial curve, poor fit]
14 | CCOC(=O)C(=CNc1ccc2c(c1)nnn2-c1ccc(Cl)cc1)C(=O)OCC | inconclusive [activator, full curve]
15 | Cc1ccc(-c2csc(NC(=O)C[n+]3cc(-c4ccc(C)cc4)n4c3CCC4)n2)cc1 | inconclusive [activator, partial curve, poor fit]
16 | NC(=O)c1ccsc1NC(=O)COC(=O)c1ccccc1NCc1ccco1 | inconclusive [activator, single point]
17 | O=S(=O)(c1ccc(-c2csc(Nc3ccc(Br)cc3)n2)cc1)N1CCCC1 | inactive
18 | CCC(O)c1ccccc1 (stereo unspecified) | inactive
19 | C=CCn1c(SCC(=O)c2[nH]c(C)c(C(=O)OC)c2C)nc2scc(-c3ccc(OC)c(OC)c3)c2c1=O | inconclusive [activator, full curve, poor fit]
20 | O=C(NNc1ccccc1)Nc1cc(Cl)ccc1Cl | inconclusive [activator, single point]
21 | O=C(CC1NCCC[C@H]1O)Cn1cnc2cc(Br)c(Cl)cc2c1=O (stereo partly specified) | inactive

Row | SMILES | Potency
22 | O=C1ON=C(c2cccc([N+](=O)[O-])c2)/C1=C/c1ccc(O)cc1 | inconclusive [activator, single point]
23 | COc1cccc2[nH]c3c(=O)[nH]cnc3c12 | inactive
24 | COc1ccc(N(CC(=O)Nc2ccccc2OC)S(=O)(=O)c2ccccc2)cc1Cl | inconclusive [activator, single point]
25 | Cc1ccc(C(=O)CC2C(=O)N(c3ccccc3)C(=S)N2c2ccccc2)cc1 (stereo unspecified) | inconclusive [activator, partial curve, poor fit]
26 | NNC(=O)/C(=C\c1ccco1)NC(=O)c1ccco1 | active: 20.6 µM
27 | CCn1c2ccccc2c2cc(NC(=O)CNCC3CCCO3)ccc21 (stereo unspecified) | inactive
28 | COC(=O)c1c(C)oc2ccc(N(C(=O)c3ccncc3)S(=O)(=O)c3ccc4ccccc4c3)cc12 | active: 3.26 µM
29 | COc1ccc(NC(=O)CCC(=O)N/N=C/c2cccnc2)cc1 | inconclusive [activator, single point]
30 | Cc1ccc(OCCCCN(C)Cc2ccccc2)c(Br)c1 | inconclusive [activator, single point]
31 | Cn1c2ccccc2c2cc(/C=C(\NC(=O)c3ccccc3)C(=O)NCC(=O)O)ccc21 | inconclusive [activator, partial curve, poor fit]
32 | COc1ccc(CCNC(=O)COc2ccc(S(=O)(=O)NC(C)C)cc2Cl)cc1OC | inconclusive [activator, full curve, poor fit]
33 | O=C(C1=C[C@@H](C2CCCCC2)C[C@@H](OCc2ccc(CO)cc2)O1)N1CCN(Cc2ccccc2)CC1 | inconclusive [activator, single point]
34 | Cc1noc(C)c1COc1ccccc1C(=O)N1CCN(c2cccc(C(F)(F)F)c2)CC1 | inconclusive [activator, single point]
35 | CCN(CC)S(=O)(=O)c1ccc(C(=O)NCC(c2ccc(OC)cc2)N2CCOCC2)cc1 (stereo unspecified) | inactive
36 | N=c1cc(C2(O)CCCCC2)n2c(nc3ccccc32)s1 | active: 18.4 µM
37 | Cc1ccn(-c2ccc(NC(=O)c3cccs3)cc2)n1 | inconclusive [activator, single point]
38 | CCOC(=O)c1ccccc1CN1C(=O)c2ccccc2S1(=O)=O | inconclusive [activator, partial curve, poor fit]
39 | Cc1[nH]n(-c2ccccc2)c(=O)c1/C=N/NC(=O)COc1ccccc1[N+](=O)[O-] | inconclusive [activator, partial curve, poor fit]
40 | O=C(Cn1nnc2c(cnn2-c2ccccc2)c1=O)N1CCN(c2ccccc2F)CC1 | inconclusive [activator, single point]
41 | Cc1cccc(-c2onc3ccc(C4(C)OCCO4)cc23)c1 | inactive

Source: PubChem BioAssay AID624296 (National Center for Advancing Translational Sciences (NCATS), 2012)
